The other results are listed elsewhere or left out.

In one test the test system is HSkMC (human skeletal muscle cells). Nature of the test: cytotoxicity call (relative viability < 0.9). Conditions: 10 µM.
Take `COc1ccc2c3c(n(c2c1)C)[C@@H](CO)N(C[C@]13CN(CC2CCOCC2)C1)C(=O)c1ccc(cc1)F`: the cytotoxicity call was “inactive”. The same measure, in the same setting: the result for `CC(C)C[C@H]1CC(=O)N=C(N)N1` reads “inactive”; that for `C[C@H](CO)N1C[C@H](C)[C@@H](CN(C)C(=O)Nc2cccc3ccccc23)Oc2c(NC(=O)Nc3ccccc3)cccc2C1=O`, “inactive”. Same read-out and setting: the result for `CN1CCN(C(=O)C[C@H]2C=C[C@@H](NC(=O)c3ccc4c(c3)OCO4)[C@@H](CO)O2)CC1` reads “inactive”. Same read-out and setting: the result for `C[C@H](CO)N1C[C@H](C)[C@@H](CN(C)CC2CC2)Oc2ccc(NS(=O)(=O)c3cn(C)cn3)cc2CC1=O` reads “inactive”; that for `C[C@@H]1O[C@H](O[C@@H]2[C@H](Oc3c(-c4ccc(O)cc4)oc4cc(O)cc(O)c4c3=O)O[C@H](CO[C@@H]3O[C@H](C)[C@@H](O)[C@H](O)[C@@H]3O)[C@@H](O)[C@@H]2O)[C@@H](O)[C@H](O)[C@@H]1O`, “inactive”.

Turning to `CC1C(=O)CCC1=O`, the cytotoxicity call was “inactive”. Same read-out and setting: then `CNC(=O)N1C[C@H]2C[C@@H]3[C@@](C1)(CN(C)S3(=O)=O)O2`, with “inactive”; and `C[C@@H]1CN([C@@H](C)CO)C(=O)c2cc(NC(=O)Cn3cnnn3)ccc2O[C@H]1CN(C)C(=O)Nc1ccc2c(c1)OCO2`, with “inactive”. In the case of `C[C@H]1CN([C@@H](C)CO)C(=O)c2cc(NC(=O)Nc3ccc4c(c3)OCO4)ccc2O[C@@H]1CN(C)Cc1ccc(Cl)c(Cl)c1`, the cytotoxicity call is “inactive”. With `CC(C)NC(=O)N(C)C[C@@H]1OCCCC[C@H](C)Oc2ccc(NS(C)(=O)=O)cc2C(=O)N([C@@H](C)CO)C[C@@H]1C`, the cytotoxicity call was “inactive”.

The next test concerns HepG2. Nature of the test: cytotoxicity call (relative viability < 0.9). The settings on record: 10 µM.
Regarding `C[C@H]1CN([C@@H](C)CO)C(=O)c2cc(NC(=O)Nc3cccc4ccccc34)ccc2O[C@@H]1CN(C)C(=O)Nc1ccc(C(F)(F)F)cc1`, the cytotoxicity call is “inactive”.

As for `C[C@H](CO)N1C[C@H](C)[C@@H](CN(C)Cc2ccc(Oc3ccccc3)cc2)Oc2ccc(NC(=O)Nc3ccccc3)cc2C1=O`, the cytotoxicity call is “active”. `CO[C@@H](CN(C)S(=O)(=O)c1cccc(Cl)c1)[C@H](C)CN([C@H](C)CO)S(=O)(=O)c1cccc(Cl)c1`: the cytotoxicity call was “inactive”. Still for that read-out and setting: then `O=C(NO)c1ccc(C(=O)N/N=C/[C@H](O)[C@@H](O)[C@H](O[C@@H]2O[C@H](CO)[C@H](O)[C@H](O)[C@H]2O)[C@H](O)CO)cc1`, with “inactive”; and `C[C@H](CO)N1C[C@H](C)[C@@H](CN(C)C(=O)CCC(F)(F)F)OCCCC[C@H](C)Oc2ccc(NS(=O)(=O)c3cccs3)cc2C1=O`, with “inactive”; and `C[C@@H]1CCCCO[C@@H](CN(C)C(=O)NC2CCCCC2)[C@@H](C)CN([C@@H](C)CO)C(=O)c2cc(NS(=O)(=O)c3ccc(Cl)cc3)ccc2O1`, with “inactive”. Still for that read-out and setting: then `C[C@H](CO)N1C[C@H](C)[C@@H](CN(C)S(=O)(=O)c2ccc(F)cc2)Oc2ccc(NS(=O)(=O)c3cccs3)cc2C1=O`, with “inactive”. Turning to `CCNC(=O)C[C@H]1CC[C@H](NC(=O)C2CC2)[C@H](CO)O1`, the cytotoxicity call is “inactive”. Same read-out and setting: then `CCCNC(=O)N1CC[C@]2(CC1)CN([C@@H](CO)c1[nH]c3cc(ccc3c12)OC)C(=O)CN1CCOCC1`, with “inactive”; and `O=C(O)c1ccc2c(ccc3nn(-c4ccc(/C=C/c5ccc(-n6nc7ccc8cc(C(=O)O)ccc8c7n6)cc5S(=O)(=O)O)c(S(=O)(=O)O)c4)nc32)c1`, with “inactive”; and `O=C(C=Cc1ccc(O)cc1)c1ccccc1`, with “active”.

In the case of `COc1ccc(S(=O)(=O)N(C)C[C@@H]2Oc3ccc(NC(=O)c4ccncc4)cc3C(=O)N([C@H](C)CO)C[C@@H]2C)cc1`, the cytotoxicity call was “inactive”.

As to `CN(C)[C@@H](CN)c1cccn1C`, the cytotoxicity call was “inactive”. `COc1ccc(S(=O)(=O)N(C)C[C@@H]2OCCCC[C@H](C)Oc3ccc(NC(=O)CCC(F)(F)F)cc3C(=O)N([C@@H](C)CO)C[C@H]2C)cc1`: the cytotoxicity call was “inactive”. On to `C[C@@H](O)C#Cc1ccc2c(c1)O[C@H](CN(C)C(=O)CN(C)C)[C@@H](C)CN([C@@H](C)CO)S2(=O)=O`, for which the cytotoxicity call was “inactive”.

As to `COCCOC(=O)N1C(=O)[C@@]2(c3cc(C#CC4(O)CCCCCC4)ccc31)[C@H](c1ccccc1OCCO)N1[C@H](c3ccccc3)[C@H](c3ccccc3)OC(=O)[C@H]1[C@@H]2C(=O)N1CCc2cc(OC)c(OC)cc2C1`, the cytotoxicity call was “inactive”. As to `C[C@@H]1CN([C@H](C)CO)C(=O)Cc2cc(NC(=O)CCN3CCOCC3)ccc2O[C@H]1CN(C)C(=O)NC1CCCCC1`, the cytotoxicity call was “inactive”.

Regarding `COc1ccc(S(=O)(=O)Nc2ccc3c(c2)C(=O)N([C@H](C)CO)C[C@H](C)[C@@H](CN(C)C(=O)Nc2ccccc2)OCCCC[C@H](C)O3)cc1`, the cytotoxicity call was “inactive”.
